{"source": "PubChem BioAssay AID588855", "about": "(National Center for Advancing Translational Sciences (NCATS), 2011)", "note": "Screen size: about 410,000 compounds; about 5,000 (1.2%) were called active. This list was built around the results that the source calls inconclusive (neither active nor inactive); the mix of calls is not that of the screen. Calls come from the whole dose curve; as a rule, active = well fitted inhibition curve with a large enough effect; inconclusive = small, poorly fitted or top-dose-only effect; inactive = no such curve, though single readings can be large or run the other way. Potencies of inconclusive entries are doubtful fits and often do not repeat. Potency is the fitted concentration of half-maximal effect; tags give direction and shape of the fitted curve.", "data": [{"test": "qHTS for Inhibitors of TGF-b; note: nearly all actives have a fitted effect of over 65% in size", "conditions": "HepG2 CAGA-GFP TGF-b/SMAD3 reporter, GFP fluorescence, 18 h, TGF-beta stimulated, 500 pg/mL final; series mostly up to 46.1 µM", "how_it_was_run": "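Inhibition was scored as loss of TGF-beta-induced (500 pg/mL final, 18 hours, 37 degrees C) GFP in HEPG2 cells carrying a CAGA-GFP reporter, in DMEM with 1% FBS. Well GFP was summed per cell; Activity was normalised to unstimulated and stimulated DMSO wells, then concentration-response fitting.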", "values": [{"molecule": "Cc1cc(C)c(NC(=O)NC(=O)c2cccc(F)c2)c(C)n1", "Potency": "inconclusive: 0.794 µM [inhibitor, full curve, poor fit]"}, {"molecule": "CCSc1ccccc1C(=O)N1CCN(c2ccc([N+](=O)[O-])cc2)CC1", "Potency": "inconclusive: 15.8 µM [inhibitor, single point]"}, {"molecule": "O=C(c1ccc([N+](=O)[O-])cc1)N1CCN(C2=NS(=O)(=O)c3ccccc32)CC1", "Potency": "inactive"}, {"molecule": "CNC(=O)C1CCN(S(=O)(=O)c2c(C)noc2/C=C/c2cccc(OC)c2)CC1", "Potency": "inactive"}, {"molecule": "O=c1c2c(n3cnnc3n1-c1ccccc1)-c1ccccc1CC21CCCCC1", "Potency": "inactive"}, {"molecule": "Cc1cccc(Nc2nc(-c3ccccn3)cs2)n1", "Potency": "inconclusive: 2.51 µM [inhibitor, partial curve]"}, {"molecule": "Cc1ccc2c(CC(=O)Nc3ccc(S(=O)(=O)N4CCCCC4C)cc3)coc2c1C", "note": "(centres undefined)", "Potency": "inconclusive: 12.6 µM [inhibitor, partial curve, poor fit]"}, {"molecule": "CC(C)C[C@H](NC(=O)c1nc[nH]c1C(=O)NC(c1ccccc1)c1ccccc1)C(=O)OCc1ccccc1", "Potency": "inconclusive: 0.794 µM [inhibitor, full curve, poor fit]"}, {"molecule": "COc1ccc(OC)c(CN2CCN(C(=O)c3cccc(S(=O)(=O)Nc4ccc(C)cc4)c3)CC2)c1", "Potency": "inconclusive: 17.8 µM [inhibitor, single point]"}, {"molecule": "CN1C(=O)CC(N2CCC(C(N)=O)CC2)C1=O", "note": "(centres undefined)", "Potency": "inconclusive: 0.398 µM [inhibitor, full curve, poor fit]"}, {"molecule": "CCOC(=O)Cn1c(=O)n(-c2cccc(Cl)c2)c2nc(-c3ccccc3Cl)nc(C(N)=O)c21", "Potency": "inconclusive: 35.5 µM [inhibitor, single point]"}, {"molecule": "O=C(Nc1ccc(CN2CCOCC2)cc1)c1ccc(Cl)cc1", "Potency": "inconclusive: 14.1 µM [inhibitor, single point]"}, {"molecule": "CC(Oc1ccc(Br)cc1)C(=O)Nc1ccncc1", "note": "(centres undefined)", "Potency": "inactive"}, {"molecule": "CC1CC(Nc2ccccc2)c2ccccc2N1C(=O)c1cccnc1", "note": "(centres undefined)", "Potency": "inactive"}, {"molecule": "NC(Cc1ccc(F)cc1)c1csc(Nc2cc(Oc3ccccc3)ncn2)n1", "note": "(centres undefined)", "Potency": "inconclusive: 35.5 µM [inhibitor, single point]"}, {"molecule": "COc1ccc(NS(=O)(=O)c2cccc(C(=O)NCc3ccco3)c2)cc1", "Potency": "inactive"}, {"molecule": "CN1/C(=C/c2cccc[n+]2CCO)Sc2ccccc21", "Potency": "inactive"}, {"molecule": "CCCn1c(=O)c(C(=O)NCC2CCCO2)c(O)c2ccccc21", "note": "(centres undefined)", "Potency": "inactive"}, {"molecule": "O=C(Nc1ccc(OC(F)(F)F)cc1)C1CCCN(C(=O)c2ccc(Cl)cc2)C1", "note": "(centres undefined)", "Potency": "inconclusive: 35.5 µM [inhibitor, single point]"}]}]}
